Measurements as given in publication PMC4336329 (PLoS ONE, 2015).
Screen size: about 310,000 compounds; about 2,200 (0.71%) showed an effect of 50% or more. The effect is printed as a negative number. Some of the results follow.

Each molecule was assayed against human ether-à-go-go-related gene (hERG) potassium channel (human, UniProt Q12809) (assay: primary screen, population patch clamp on CHO cells stably expressing hERG).
human ether-à-go-go-related gene (hERG) potassium channel, sequence (Q12809 whole entry, looked up): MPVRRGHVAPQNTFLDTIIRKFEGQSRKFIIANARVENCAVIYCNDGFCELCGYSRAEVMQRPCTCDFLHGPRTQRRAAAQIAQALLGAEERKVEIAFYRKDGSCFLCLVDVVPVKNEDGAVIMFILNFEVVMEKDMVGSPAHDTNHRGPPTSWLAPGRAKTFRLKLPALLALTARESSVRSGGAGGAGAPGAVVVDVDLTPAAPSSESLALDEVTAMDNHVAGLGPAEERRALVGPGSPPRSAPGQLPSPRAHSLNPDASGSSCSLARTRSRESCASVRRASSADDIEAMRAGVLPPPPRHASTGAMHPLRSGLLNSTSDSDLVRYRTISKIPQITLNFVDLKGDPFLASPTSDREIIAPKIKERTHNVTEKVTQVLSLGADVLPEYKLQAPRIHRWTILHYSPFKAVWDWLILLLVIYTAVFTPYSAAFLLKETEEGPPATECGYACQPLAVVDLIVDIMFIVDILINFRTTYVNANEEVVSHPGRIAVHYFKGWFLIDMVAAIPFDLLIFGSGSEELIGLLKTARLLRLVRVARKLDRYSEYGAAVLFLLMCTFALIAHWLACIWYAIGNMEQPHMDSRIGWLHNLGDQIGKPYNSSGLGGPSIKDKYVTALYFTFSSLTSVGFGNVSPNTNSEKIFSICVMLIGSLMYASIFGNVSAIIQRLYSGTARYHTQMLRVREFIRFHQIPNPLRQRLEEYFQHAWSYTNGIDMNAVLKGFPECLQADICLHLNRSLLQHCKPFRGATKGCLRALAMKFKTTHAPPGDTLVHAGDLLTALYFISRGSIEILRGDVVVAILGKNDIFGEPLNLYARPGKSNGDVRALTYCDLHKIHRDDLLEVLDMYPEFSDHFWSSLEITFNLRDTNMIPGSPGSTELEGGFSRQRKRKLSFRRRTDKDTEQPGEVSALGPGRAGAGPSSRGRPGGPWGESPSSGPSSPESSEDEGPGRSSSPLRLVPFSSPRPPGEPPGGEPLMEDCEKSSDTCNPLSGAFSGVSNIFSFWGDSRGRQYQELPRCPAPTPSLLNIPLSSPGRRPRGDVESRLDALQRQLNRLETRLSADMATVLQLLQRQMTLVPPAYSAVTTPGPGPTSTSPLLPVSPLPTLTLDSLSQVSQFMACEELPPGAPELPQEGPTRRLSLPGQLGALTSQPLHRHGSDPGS
For Cc1[nH]c2ccccc2c1C(=O)C(=O)NCCC1=CCCCC1, the “hERG current change (%, negative = inhibition) at 1uM” value was 8.43%.
CCN(CC)C(=O)CN(c1cccc(OC)c1)S(=O)(=O)c1ccc(C)cc1 was tested, and the “hERG current change (%, negative = inhibition) at 1uM” value was 13.2%.
With Cc1ccc(C(=O)NCc2ccco2)cc1 the “hERG current change (%, negative = inhibition) at 1uM” value was 15.8%.
With CSc1ccccc1C(=O)C1CCCN(C(=O)CCc2cccnc2)C1 (centres unmarked) the “hERG current change (%, negative = inhibition) at 1uM” value was 8.69%.
Cn1cc([N+](=O)[O-])c(C(=O)N/N=C/c2ccccc2)n1 was tested, and the “hERG current change (%, negative = inhibition) at 1uM” value was 8.41%.
For CCCN(CCC)C(=O)C1CCN(c2ccc(S(=O)(=O)N3CCOCC3)cc2[N+](=O)[O-])CC1, the “hERG current change (%, negative = inhibition) at 1uM” value was -3.56%.
In the case of C=CCOc1ccccc1CN1CCSCC1, the “hERG current change (%, negative = inhibition) at 1uM” value is reported as -1.02%.
With NC(=S)N/N=C/c1ccc2c(c1)OCCO2 the “hERG current change (%, negative = inhibition) at 1uM” value was 13.7%.
O=C(Cn1cnc2c(oc3nc4c(cc32)CCCC4)c1=O)Nc1cccc(Cl)c1 was tested, and the “hERG current change (%, negative = inhibition) at 1uM” value was 9.78%.
O=C(O)C(F)=C1c2ccccc2-c2ccccc21 was tested, and the “hERG current change (%, negative = inhibition) at 1uM” value was 14.5%.
CC(C)Oc1ccc(CSc2nnc3n(C)c(=O)c4c5c(sc4n23)CCCC5)cc1 was tested, and the “hERG current change (%, negative = inhibition) at 1uM” value was 0.037%.
For COc1cccc(C(=O)NCCS(=O)(=O)NCc2ccc3c(c2)OCO3)c1, the “hERG current change (%, negative = inhibition) at 1uM” value was 3.34%.
For COc1ccc(C[C@H]2COC(=O)[C@@H]2Cc2ccc(OC3OC(CO)C(O)C(O)C3O)c(OC)c2)cc1OC (some centres unmarked), the “hERG current change (%, negative = inhibition) at 1uM” value was 15.4%.
In the case of CC(=O)c1ccc(N2CCN(C(=O)Cn3cnc(S(=O)(=O)N4CCCCC4)c3)CC2)cc1, the “hERG current change (%, negative = inhibition) at 1uM” value is reported as 8.27%.
In the case of CC1(C)OC(=O)C(=CNC(Cc2c[nH]c3ccccc23)C(=O)O)C(=O)O1 (centres unmarked), the “hERG current change (%, negative = inhibition) at 1uM” value is reported as 12.2%.
CCc1ccc(CNC(=O)C2CCN(c3nnc(C)c4c(C)n(-c5ccc(C)cc5)nc34)CC2)cc1 was tested, and the “hERG current change (%, negative = inhibition) at 1uM” value was 11.6%.
O=C(O)c1csc(Cc2ccccc2)n1 was tested, and the “hERG current change (%, negative = inhibition) at 1uM” value was 9.37%.
In the case of NC(=O)c1nn(CC(=O)Nc2cccc(S(=O)(=O)N3CCCC3)c2)c(=O)c2ccccc12, the “hERG current change (%, negative = inhibition) at 1uM” value is reported as 7.71%.
In the case of O=C(Nc1ccc2c(c1)OCO2)Nc1ccc(Br)cn1, the “hERG current change (%, negative = inhibition) at 1uM” value is reported as 1.68%.
For C=C(C)C(=O)Nc1cccc(C2=NOC3(C2)C[C@@H](C(N)=O)N(C(=O)/C(C)=C/C)C3)c1 (some centres unmarked), the “hERG current change (%, negative = inhibition) at 1uM” value was 20.1%.
In the case of COc1ccc(S(=O)(=O)N2CCOCC2)cc1NC(=O)c1ccccc1-c1ccc(C(F)(F)F)cc1, the “hERG current change (%, negative = inhibition) at 1uM” value is reported as 4.2%.
For COc1ccc(OCC(=O)Nc2ccccc2C(=O)N2CCCC2)cc1, the “hERG current change (%, negative = inhibition) at 1uM” value was -2.47%.
O=C(/C=C/c1ccc(Br)o1)OCc1nc2ccsc2c(=O)[nH]1 was tested, and the “hERG current change (%, negative = inhibition) at 1uM” value was 15.5%.
For CCOC(=O)[C@H]1[C@H]2COc3ccccc3[C@@H]2N2C(=O)CNC(=O)[C@@]12C, the “hERG current change (%, negative = inhibition) at 1uM” value was 17.6%.
For Cc1ccc(S(=O)(=O)NCC(=O)NCC2CCCCC2)cc1C, the “hERG current change (%, negative = inhibition) at 1uM” value was 13.9%.
Cc1ccc(C)c(N2CCN(C(=O)CCC(=O)Nc3nnc(C(F)(F)F)s3)CC2)c1 was tested, and the “hERG current change (%, negative = inhibition) at 1uM” value was 15%.
COC(=O)/C(C#N)=C/c1ccc(C)o1 was tested, and the “hERG current change (%, negative = inhibition) at 1uM” value was 3.28%.
For COc1cc(/C=C/c2cccc[n+]2C)ccc1OCC(=O)Nc1ccccc1.[I-], the “hERG current change (%, negative = inhibition) at 1uM” value was 17.5%.
With CCC(CC)C(=O)N1CC(=O)Nc2ccc(C)cc2C1c1ccccc1 (centres unmarked) the “hERG current change (%, negative = inhibition) at 1uM” value was -6.45%.
CCCCn1c(N)c(N(CC(C)C)C(=O)c2oc3ccc(OCC)cc3c2C)c(=O)[nH]c1=O was tested, and the “hERG current change (%, negative = inhibition) at 1uM” value was 12.5%.
With COc1ccc(CCN(CC(=O)NC(C)(C)C)C(=O)Cn2nnc(-c3ccc(C)o3)n2)cc1OC the “hERG current change (%, negative = inhibition) at 1uM” value was 16.1%.
In the case of CC1Oc2ccccc2N(CC(=O)NCCN2CCOCC2)C1=O (centres unmarked), the “hERG current change (%, negative = inhibition) at 1uM” value is reported as 0.595%.
With CCOC(=O)c1c(N)sn(-c2ccccc2C)c1=S the “hERG current change (%, negative = inhibition) at 1uM” value was -9.41%.
COc1ccc(Nc2nc3c(C)cccn3c(=O)c2C=NCc2ccccc2)cc1 was tested, and the “hERG current change (%, negative = inhibition) at 1uM” value was 10.5%.
With C=CCn1c(SCC(=O)N(CC)C2CCS(=O)(=O)C2)nc2cc(C(=O)O)ccc2c1=O (centres unmarked) the “hERG current change (%, negative = inhibition) at 1uM” value was 16.4%.
For Nc1nc(CN2CCCCCC2)nc(Nc2ccc(F)cc2)n1, the “hERG current change (%, negative = inhibition) at 1uM” value was -48.8%.
CCn1ncc(-c2csc(N)n2)c1C was tested, and the “hERG current change (%, negative = inhibition) at 1uM” value was 5.96%.
With O=C(O)Cn1nc(C(F)(F)F)c2c1CCC2 the “hERG current change (%, negative = inhibition) at 1uM” value was 20.5%.
In the case of Cn1c(=O)c2c(nc(N3CCC(C(N)=O)CC3)n2CCSc2nc3ccccc3s2)n(C)c1=O, the “hERG current change (%, negative = inhibition) at 1uM” value is reported as 6.6%.
For O=C1CS/C(=C\S(=O)(=O)c2ccc(Cl)cc2)N1, the “hERG current change (%, negative = inhibition) at 1uM” value was 6.44%.
With COc1cc(/C=N\NC(=O)c2ccc(Cn3cc(Br)c([N+](=O)[O-])n3)o2)cc(OC)c1O the “hERG current change (%, negative = inhibition) at 1uM” value was 7.61%.
For O=C(Cn1nc(C(F)F)cc1C(F)F)N/N=C/c1ccc2c(c1)OCO2, the “hERG current change (%, negative = inhibition) at 1uM” value was 22.5%.
In the case of CCN(Cc1ccccc1)C(=O)c1ccc(Cl)cc1[N+](=O)[O-], the “hERG current change (%, negative = inhibition) at 1uM” value is reported as 7.7%.
Cc1cc(C(=O)CSc2nnc(N)s2)c(C)n1Cc1ccco1 was tested, and the “hERG current change (%, negative = inhibition) at 1uM” value was 31%.
CCOC(=O)c1cc(-c2ccccc2)sc1NC(=O)CSc1nnnn1C was tested, and the “hERG current change (%, negative = inhibition) at 1uM” value was 7.23%.
In the case of CCN(CC)c1ncnc2c1sc1nc(C)cc(C)c12, the “hERG current change (%, negative = inhibition) at 1uM” value is reported as 4.82%.
With Cc1ccc(S(=O)(=O)CCC(=O)Oc2ccc3c(C)cc(=O)oc3c2)cc1 the “hERG current change (%, negative = inhibition) at 1uM” value was 8.87%.
For CCCCN(C)C(=S)Nc1ccc2nc3n(c(=O)c2c1)CCCCC3, the “hERG current change (%, negative = inhibition) at 1uM” value was -8.53%.
For COc1cc(/C=C/C(=O)c2cccc([N+](=O)[O-])c2)cc(OC)c1OC, the “hERG current change (%, negative = inhibition) at 1uM” value was 11%.
With Cc1ccc2oc(-c3ccccc3C(=O)O)cc(=O)c2c1 the “hERG current change (%, negative = inhibition) at 1uM” value was 2.7%.
Cc1ccc(CNC(=O)CSCc2cccc(F)c2)cc1 was tested, and the “hERG current change (%, negative = inhibition) at 1uM” value was 6.87%.
C=CCn1c(CNC(=O)c2cccs2)nnc1SCC(=O)c1ccc(Br)cc1 was tested, and the “hERG current change (%, negative = inhibition) at 1uM” value was -9.68%.
Cc1cccc(NC(=O)c2ccc(S(=O)(=O)N(C)C)cc2)n1 was tested, and the “hERG current change (%, negative = inhibition) at 1uM” value was 2.17%.
Cc1ccc(NC(=O)ON=C2CCCC2)cc1 was tested, and the “hERG current change (%, negative = inhibition) at 1uM” value was 5.05%.
For Nc1nnc(Sc2ccc(Cl)cc2[N+](=O)[O-])s1, the “hERG current change (%, negative = inhibition) at 1uM” value was 11.7%.
With CN1CCNC(=O)C1CC(=O)N1CC=C(c2ccc(F)cc2)CC1 (centres unmarked) the “hERG current change (%, negative = inhibition) at 1uM” value was 16.2%.
